Measurements as given in PubChem BioAssay AID1347120 (National Center for Advancing Translational Sciences (NCATS), 2019).
Among all 390,000 compounds or so, about 930 (0.24%) were called active. Inconclusive means that the source gave no clear call. Such entries were picked first, then a sample of the others. Calls follow the shape of the dose curve; as a rule, active = well fitted activation curve with a large enough effect; inconclusive = small, poorly fitted or top-dose-only effect; inactive = no such curve, though single readings can be large or run the other way. Potencies beside an inconclusive call are fits to weak or partial responses and may not hold up.

Assay: qHTS for Suppressors of FUS Proteinopathy: Primary screen using FUS-linked yeast assay; also: nearly all actives have a fitted effect of over 55% in size;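 as to growth rescue (activation): plate controls were DMSO vehicle for no effect and reference control for full effect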
Conditions: S. cerevisiae FUS-expressing, OD600, 24 h; Potency: growth rescue; growth rescue (activation): at 76.6 µM (top of the series)
Method in brief: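 Quantitative HTS measuring growth restoration of FUS-toxic yeast. Galactose-induced cells (OD 0.005) were exposed 24hr at 30C to compounds at several concentrations, then absorbance at 600 nm was recorded.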
Potency is read from the fitted curve at half-maximal effect; tags tell the direction and shape of the fitted curve.

SMILES | Potency | growth rescue (activation)
CCSc1nc2ccccc2c(=O)n1CCc1ccc(OC)c(OC)c1 | inconclusive: 28.2 µM [activator, single point] | –
Cc1cccc(C(=O)Nc2ccc(C(=O)OCc3cc(=O)n4c(C)csc4n3)cc2)c1 | inactive | –
CCCCOc1cccc(C(=O)N(Cc2ccc(Br)o2)C2CCS(=O)(=O)C2)c1 (centres undefined) | inconclusive: 20 µM [activator, single point] | –
CC(=O)c1ccc2c(c1)N(C)c1ccccc1S2 | inconclusive: 44.7 µM [activator, single point] | –
O=C(CCn1nnc2ccccc21)N/N=C\Cc1ccccc1 | inconclusive: 35.5 µM [activator, single point] | –
CC1=C(C(=O)NCc2ccc(Cl)cc2)C2(CCC(C)CC2)OC1=O (centres undefined) | inactive | –
C[C@@H]1CN([C@H](C)CO)S(=O)(=O)c2ccc(C#CC3CCCC3)cc2O[C@H]1CN(C)C(=O)Cc1ccccc1 | inconclusive: 25.1 µM [activator, single point] | –
C[C@@H]1CCCCO[C@H](CN(C)S(=O)(=O)c2cccs2)[C@H](C)CN([C@@H](C)CO)C(=O)c2cc(NC(=O)NC3CCCCC3)ccc2O1 | inconclusive: 22.4 µM [activator, partial curve, poor fit] | –
CN1CC(c2ccccn2)C2(SC(=S)N(Cc3ccccc3)C2=O)C12C(=O)Nc1ccccc12 (centres undefined) | inconclusive: 35.5 µM [activator, single point] | –
COc1cccc(NC(=O)N(Cc2cn(C)c3ccccc23)C2CCCCCC2)c1 | inconclusive: 22.4 µM [activator, partial curve, poor fit] | –
Cc1ccc(C)c(NC(=O)c2nc(-c3ccccc3)n(-c3ccccc3)n2)c1 | inconclusive: 50.1 µM [activator, single point] | –
CC(=O)Nc1ccc(C(=O)Nc2nc(-c3ccccn3)cs2)cc1 | inconclusive: 50.1 µM [activator, single point] | –
COc1ccc(N(CC(=O)NC2CCCCC2)C(=O)CCCC(=O)Nc2ccccn2)cc1 | inactive | –
CN1CCN(c2nc(Nc3cccc(C(F)(F)F)c3)nc(N3CCOCC3)n2)CC1 | inconclusive: 50.1 µM [activator, single point] | –
O=C1c2ccccc2-c2ccc(P(=O)(O)O)cc21 | inactive | –
Cc1ccccc1CNC(=O)c1ccc2ccccc2n1 | inactive | –
COc1cc(C(=O)OCCc2cc3ccccc3c(=O)o2)cc(OC)c1OC | inactive | –
CCCCC(CC(C)O)c1n[nH]c(=S)n1-c1ccccc1 (centres undefined) | inconclusive: 50.1 µM [activator, partial curve, poor fit] | –
O=C1c2cccnc2C(Nc2ccccc2)N1Cc1ccco1 (centres undefined) | inconclusive: 50.1 µM [activator, partial curve, poor fit] | –
Cc1c(Cl)cccc1-n1nc(C)c2c(C)cc(=O)n(CC(=O)N3CCCc4ccccc43)c21 | inactive | –

SMILES | Potency | growth rescue (activation)
CCOc1ccc(CC2c3cc(OCC)c(OCC)cc3CCN2C(=O)CN2CCN(C)CC2)cc1OCC (centres undefined) | inconclusive: 15.8 µM [activator, partial curve, poor fit] | –
COc1ccc(-c2cc(NC=O)c3ncc(-c4ccc(C(C)=O)cc4)n3c2)cn1 | inconclusive: 31.6 µM [activator, single point] | –
O=C(c1ccc(-c2ccc([N+](=O)[O-])cc2)o1)N1CCCCCCC1 | inconclusive: 44.7 µM [activator, single point] | –
Cc1ccccc1N1CC(c2nc3ccccc3n2Cc2ccc(Br)cc2)CC1=O (centres undefined) | inconclusive: 28.2 µM [activator, partial curve, poor fit] | –
CCOc1ccc(CNC(=O)C2CCN(C(=O)N3CC(CC)Oc4ccc(C)cc43)CC2)cc1OC (centres undefined) | inconclusive: 15.8 µM [activator, partial curve] | –
Oc1ccc(C[C@H]2CNC(=S)N2CC2CCCN2C[C@H](Cc2ccc(O)cc2)N2C[C@H](Cc3ccccc3)N(CC3CCCCCC3)C2=S)cc1 (some centres undefined) | inconclusive: 31.6 µM [activator, single point] | –
CCCCOn1c(C)c(C(=O)OCC)c2c3nonc3ccc21 | – | inconclusive: 61.7% [activator]
CSc1ccc(/C=C(\NC(=O)c2ccc(C)cc2)C(=O)NN)cc1 | inconclusive: 50.1 µM [activator, single point] | –
O=C(c1ccc2nc(-c3ccco3)c(-c3ccco3)nc2c1)N1CCN(c2ccccc2)CC1 | inconclusive: 25.1 µM [activator, partial curve, poor fit] | –
C/C=C1\COC(C(=O)NCCN2CCCC2)(C(F)(F)F)C=C1C=C1CCCCC1 (centres undefined) | inconclusive: 44.7 µM [activator, single point] | –
O=C(NCC1(c2ccccc2)CCCC1)C(=O)N1CCOCC1 | – | inconclusive: 90.9% [activator]
CCOC(=O)c1ccc(NC(=O)CCC(=O)OC)cc1 | inconclusive: 0.794 µM [activator, full curve, poor fit] | –
CCCSc1ccc([C@H]2N[C@@](C)(C(=O)OC)[C@H]3C(=O)N(C)C(=O)[C@@H]23)cc1 | inactive | –
O=C(NCc1ccc(F)cc1)c1cc(C2CCCCN2C(=O)c2cccs2)on1 (centres undefined) | inconclusive: 25.1 µM [activator, partial curve, poor fit] | –
O=C(c1ccco1)N1CCN(C(=O)c2ccc(COc3ccc4c(c3)CCC4)o2)CC1 | inconclusive: 11.2 µM [activator, partial curve, poor fit] | –
CCN(CC)C(=O)c1cccc(-c2csc(C(O)c3ccc(F)cc3)n2)c1 (centres undefined) | inconclusive: 25.1 µM [activator, partial curve, poor fit] | –
CCCCn1c(SC(C)C(=O)c2ccc(OC)cc2)nc2cc(S(N)(=O)=O)ccc21 (centres undefined) | inconclusive: 28.2 µM [activator, single point] | –
COc1cccc(CNC(=O)C2CCCCN2S(=O)(=O)c2ccc(F)cc2)c1 (centres undefined) | inactive | –
Cc1cc(C)c2[nH]c(=O)c(C(c3nnnn3C(C)(C)C)N3CCN(C(=O)c4ccco4)CC3)cc2c1 (centres undefined) | inconclusive: 28.2 µM [activator, partial curve, poor fit] | –
